Assay results published in PubChem BioAssay AID504332 (National Center for Advancing Translational Sciences (NCATS), 2011).
Where “and” joins values, the source holds several entries; their conditions need not be identical. Equal values may be shown once. Hit rate of the full screen: of about 350,000 compounds, about 31,000 (8.9%) were called active. Inconclusive results, whose numbers are uncertain, are shown with a selection of clear calls. Calls follow the shape of the dose curve; as a rule, active = well fitted inhibition curve with a large enough effect; inconclusive = small, poorly fitted or top-dose-only effect; inactive = no such curve, though single readings can be large or run the other way. A potency beside an inconclusive call is a rough fit, not a confirmed value.

Target: Histone-lysine N-methyltransferase EHMT2 (Homo sapiens) (UniProt Q96KQ7)
Sequence of UniProt Q96KQ7 (Q96KQ7 whole entry, looked up): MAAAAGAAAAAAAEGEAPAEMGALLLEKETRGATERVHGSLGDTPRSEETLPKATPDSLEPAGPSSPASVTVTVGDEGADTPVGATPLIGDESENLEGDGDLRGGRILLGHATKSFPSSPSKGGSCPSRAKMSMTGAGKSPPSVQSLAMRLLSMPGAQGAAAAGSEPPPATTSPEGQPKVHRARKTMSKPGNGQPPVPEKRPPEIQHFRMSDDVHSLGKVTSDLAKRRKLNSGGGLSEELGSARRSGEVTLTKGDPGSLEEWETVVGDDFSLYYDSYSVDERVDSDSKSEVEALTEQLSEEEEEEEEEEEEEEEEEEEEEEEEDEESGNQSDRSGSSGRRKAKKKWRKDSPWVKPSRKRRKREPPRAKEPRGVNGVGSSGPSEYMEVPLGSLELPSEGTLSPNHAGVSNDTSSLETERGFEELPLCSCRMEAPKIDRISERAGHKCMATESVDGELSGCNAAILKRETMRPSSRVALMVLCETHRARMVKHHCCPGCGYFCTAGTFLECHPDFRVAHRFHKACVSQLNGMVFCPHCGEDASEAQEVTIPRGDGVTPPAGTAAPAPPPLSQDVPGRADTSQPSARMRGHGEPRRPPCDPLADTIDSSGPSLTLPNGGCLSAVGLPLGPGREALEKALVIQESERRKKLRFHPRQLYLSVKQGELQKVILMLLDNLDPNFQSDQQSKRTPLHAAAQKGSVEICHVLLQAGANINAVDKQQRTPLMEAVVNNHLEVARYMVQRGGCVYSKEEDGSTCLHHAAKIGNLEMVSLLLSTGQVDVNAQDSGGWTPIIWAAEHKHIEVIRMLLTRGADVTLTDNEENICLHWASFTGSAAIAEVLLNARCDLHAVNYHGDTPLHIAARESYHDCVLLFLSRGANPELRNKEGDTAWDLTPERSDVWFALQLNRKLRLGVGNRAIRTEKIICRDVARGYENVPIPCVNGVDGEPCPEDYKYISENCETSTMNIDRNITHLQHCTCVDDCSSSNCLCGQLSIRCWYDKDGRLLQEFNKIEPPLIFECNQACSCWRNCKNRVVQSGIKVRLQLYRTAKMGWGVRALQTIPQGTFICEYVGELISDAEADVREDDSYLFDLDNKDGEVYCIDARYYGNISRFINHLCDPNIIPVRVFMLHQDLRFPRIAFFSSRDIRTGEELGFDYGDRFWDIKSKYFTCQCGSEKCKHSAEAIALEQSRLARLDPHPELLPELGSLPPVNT
Assay: qHTS Assay for Inhibitors of Histone Lysine Methyltransferase G9a; also: nearly all actives have a fitted effect of over 75% in size
Conditions: G9a H3K9 monomethylation, AlphaScreen, 2 h; activity, negative = inhibition: at 59 µM (top of the series) unless noted
Outline: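 Methyltransferase reactions run at room temperature for 2 h (20 nM enzyme, 500 nM biotin-H3K9 peptide, 20 uM SAM) after a 15 min compound preincubation; product detected by AlphaScreen beads and anti-H3K9me1 antibody.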
% is scaled to controls: 0 for no effect and ±100 for the full control effect; potency is read from the fitted curve at half-maximal effect; tags tell the direction and shape of the fitted curve.

SMILES	Potency	activity, negative = inhibition
COc1ccc(C(CNC(=O)c2cccc(N(C)C)c2)N2CCCC2)cc1 (configuration not stated)	inconclusive: 28.2 µM [inhibitor, single point]	
C=CCn1c(SCC(=O)NCc2cccs2)nnc1C1CCCCC1	inconclusive: 6.31 µM [inhibitor, single point]	
COCCn1nnnc1C(c1ccc(OC)cc1)N1CCN(C(=O)c2ccco2)CC1 (configuration not stated)	inconclusive: 89.1 µM [inhibitor, single point]	
CNc1nc(-c2ccc3c(c2)CCN3C(=O)c2cccc(F)c2)cs1		inconclusive: -93% [inhibitor]
C/C=C\C=C/C(=O)Nc1cccc(C2=NOC3(C2)C[C@@H](C(N)=O)N(C(=O)C2(C)CC2)C3)c1 (some centres not stated)	inconclusive: 35.5 µM [inhibitor, single point]	
CC(C)(C)OC(=O)N1CCC(c2c(C(=O)N3CCN(C(=O)c4ccco4)CC3)cnn2-c2ccccc2)CC1	inactive	
COc1ccc(OC)c2[nH]c(=O)c(CCNC(=O)c3ccc4c(c3)OCO4)cc12	inconclusive: 70.8 µM [inhibitor, single point]	
COc1cccc(C2CC(c3ccc(C)cc3)n3nc(N)nc3N2)c1 (configuration not stated)	inconclusive: 50.1 µM [inhibitor, partial curve]	
C=CCOc1ccnc(-c2ccccc2)n1	inactive	
Cc1ccc2nc(-c3ccc(NC(=S)NC(=O)C(C)C)cc3)sc2c1		inactive: 4.55% [at 2.33 µM]
COc1cc(C)ccc1OCCOCCOc1cccc2ccc(C)nc12	active: 10 µM	
COc1cc(NC(=O)c2ccc(NC(=O)N3CCSc4ncccc43)cc2)cc(OC)c1	inconclusive: 4.47 µM [inhibitor, partial curve, poor fit]	
Cc1c(Cl)cccc1NC(=O)C1COc2ccccc2O1 (configuration not stated)	inactive	
NS(=O)(=O)c1ccc(N2CCCC2=O)c([N+](=O)[O-])c1	inconclusive: 31.6 µM [inhibitor, full curve]	
CC(C)c1nnc(NC(=O)CC(=O)Nc2ccccc2C(=O)O)s1	inconclusive: 56.2 µM [inhibitor, partial curve]	
Nc1nc(NCCc2ccc(O)cc2)nc2nc(-c3ccco3)nn12	inactive	
CCCS(=O)(=O)c1nc(S(=O)(=O)c2ccc(C)cc2)c(NCc2ccccc2)s1	inactive	
COCCn1c(SCc2cccnc2)nnc1-c1ccco1	inconclusive: 4.47 µM [inhibitor, partial curve, poor fit]	
N#CCCN1CCN(S(=O)(=O)c2ccc(S(=O)(=O)N3CCCC3)cc2)CC1	inactive	
N#CCCN(C(=O)COC(=O)c1cc(S(=O)(=O)N2CCOCC2)ccc1Cl)c1ccc(F)cc1	inconclusive: 70.8 µM [inhibitor, partial curve, poor fit]	
CN(c1ccccc1)S(=O)(=O)c1ccc(Cl)c(C(=O)OCC(N)=O)c1	inconclusive: 14.1 µM [inhibitor, partial curve, poor fit]	

SMILES	Potency	activity, negative = inhibition
COc1ccc(Cl)cc1N(CC(=O)NC1CC2CCC1C2)S(=O)(=O)c1ccccc1 (configuration not stated)	inactive	
Cc1nn(CC(C)C)c(Cl)c1C(=O)N(c1ccc(Cl)cc1F)S(C)(=O)=O	inactive	
O=C(Nc1cccc(S(=O)(=O)Nc2ccc(Cl)cc2)c1)c1ccc(Cl)nc1	active: 79.4 µM	
O=C(CCc1ccccn1)N1CCCC(Nc2cccc(F)c2)C1 (configuration not stated)	inactive	
CCOC(=O)CC1C(=O)NCCN1c1nc2c(C)cccn2c(=O)c1/C=C1\SC(=S)N(C(C)CC)C1=O (configuration not stated)	inconclusive: 28.2 µM [inhibitor, partial curve, poor fit]	
NS(=O)(=O)c1ccc2c(c1)C1C=CCC1C(C1CC=CCC1)N2 (configuration not stated)		inconclusive: -144% [inhibitor]
COc1ccc(-n2c(=O)c(NC(=O)c3ccccc3)c3n(c2=S)CCCCC3)cc1	inconclusive: 70.8 µM [inhibitor, single point]	
CCc1ccc(NC(=O)C(=O)NNC(=O)c2ccc(OC)cc2)cc1	inactive	
CCOC(=O)C1=C(c2ccccc2)N2CCS(=O)(=O)N=C2S1	inconclusive: 12.6 µM [inhibitor, partial curve]	
CCOC(=O)c1c(N)sc(=S)c2c1CCC2	inconclusive: 7.08 µM [inhibitor, single point]	
CCN1CCN(C(CNS(=O)(=O)c2ccccc2)c2cccnc2)CC1 (configuration not stated)	inconclusive: 11.2 µM [inhibitor, partial curve, poor fit]	
COc1ccc(-n2nc(C(=O)Nc3ccc4c(c3)OCO4)c3c4ccccc4n(C)c3c2=O)cc1	inconclusive: 25.1 µM [inhibitor, partial curve, poor fit]	
C=CCN1CCc2c(cc(O)c(O)c2Br)[C@@H](c2ccccc2)C1	active: 10 µM and active: 8.91 µM	
O=[N+]([O-])c1ccc(N2CCN(c3cccc(Cl)c3)CC2)cn1	inactive	
COc1ccc(NC(=O)c2c(C)oc3ccc(O)c(CN4CCN(Cc5ccccc5)CC4)c23)cc1	inconclusive: 7.94 µM [inhibitor, partial curve, poor fit]	
Cc1cccc(Cn2c(SCc3ccc(C(=O)NC4CCCCC4)cc3)nc3ccncc32)c1	inconclusive: 1.41 µM [inhibitor, partial curve, poor fit]	
Oc1ccccc1-n1c(-c2ccccc2)ccc1-c1ccccc1		inactive: 24.1% [at 12.7 µM]
Cc1nc(N)c(C#N)c(-c2cccnc2)c1-c1ccccc1	inconclusive: 89.1 µM [inhibitor, single point]	
CCOC(=O)Cn1nnnc1C(C(C)C)N(Cc1cc2c(C)cc(C)cc2[nH]c1=O)C1CCCC1 (configuration not stated)	inconclusive: 7.94 µM [inhibitor, partial curve, poor fit]	
Cc1ccc(N2C(=O)CC(Sc3ncn[nH]3)C2=O)cc1 (configuration not stated)	inconclusive: 1.78 µM [inhibitor, full curve, poor fit]	
Cc1ccc(C(=O)COC(=O)CCC(=O)Nc2ccc(Oc3cc(C)ccc3C(C)C)cc2)cc1	inconclusive: 14.1 µM [inhibitor, partial curve]	
